Assay results published in PubChem BioAssay AID360 (National Center for Advancing Translational Sciences (NCATS), 2006).
Out of some 48,000 compounds screened, about 550 (1.1%) were called active. The inconclusive results got no clear call from the source; some entries with a clear call stand among them for comparison. Cut-off read from the data, not from the text of the source: active = potency below about 15 µM; inconclusive = mostly about 16 µM to 33 µM; inactive = weaker than that. Where the call is inconclusive, the potency comes from a doubtful curve fit.

molecular target: Lysosomal acid glucosylceramidase (Homo sapiens) (UniProt P04062); test: Glucocerebrosidase; details: purified enzyme, resorufin glucoside fluorescence (screen aimed at inhibitors), 20 min;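 note: the screen sought inhibitors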
UniProt P04062, sequence (P04062 whole entry, looked up): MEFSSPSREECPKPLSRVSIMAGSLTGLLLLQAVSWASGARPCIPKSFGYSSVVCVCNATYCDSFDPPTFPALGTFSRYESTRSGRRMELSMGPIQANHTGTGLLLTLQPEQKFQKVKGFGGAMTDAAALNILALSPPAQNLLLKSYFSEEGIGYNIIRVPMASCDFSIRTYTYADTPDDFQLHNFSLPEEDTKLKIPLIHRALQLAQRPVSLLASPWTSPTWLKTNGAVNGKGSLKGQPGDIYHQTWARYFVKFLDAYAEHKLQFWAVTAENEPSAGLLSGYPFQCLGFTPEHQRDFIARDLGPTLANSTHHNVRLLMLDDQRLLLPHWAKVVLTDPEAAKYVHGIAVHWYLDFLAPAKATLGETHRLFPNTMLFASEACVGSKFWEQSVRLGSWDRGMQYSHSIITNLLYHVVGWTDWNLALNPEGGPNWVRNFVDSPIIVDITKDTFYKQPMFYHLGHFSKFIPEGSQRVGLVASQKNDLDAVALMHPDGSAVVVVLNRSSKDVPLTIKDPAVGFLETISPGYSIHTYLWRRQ
Summary of the method: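 Wild-type enzyme at 0.2 nM final in 50mM citric acid/KH2PO4, 10mM sodium taurocholate, 0.01% tween-20, pH 5.9, with resorufin beta-D-glucopyranoside at 30 uM final. Compounds titrated, 20 min at RT, red fluorescence read; AC50 from titration.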
Potency is the fitted concentration of half-maximal effect.

Potency, inconclusive:
O=C(CN1CCCCC1)Nc1ccc(S(=O)(=O)NC2CCCCC2)cc1 18.3 µM [decreasing]
N#CCCn1nc(-c2ccccc2)cc1-n1c(C(F)(F)F)nc2ccccc21 15.6 µM [decreasing]
COc1ccc(N(CC(=O)Nc2cccc(C)c2C)S(=O)(=O)c2c(C)n[nH]c2C)cc1 16.5 µM [decreasing]
O=C(Nc1nnc(C2CC2)s1)C1Cc2ccccc2CN1S(=O)(=O)c1cccs1 (configuration not stated) 20.2 µM [decreasing]
CC1CCC(NC(=O)CN2CCCN(Cc3ccc(F)cc3Cl)C2=O)CC1 (configuration not stated) 20.4 µM [decreasing]
O=C(CSCc1ccco1)Nc1cc(C(F)(F)F)ccc1N1CCOCC1 33 µM [decreasing]
COc1ccc(N=c2oc3c(OC)cccc3cc2C(=O)NCc2ccco2)cc1OC 26.9 µM [increasing]
CCNc1nc2nonc2nc1NCC 18.4 µM [decreasing]
CCC(Oc1ccccc1)C(=O)Nc1ccc(S(=O)(=O)NCC2CCCO2)cc1 (configuration not stated) 23.7 µM [decreasing]
COc1ccccc1N1CCN(C(=O)CN(Cc2ccc(Cl)cc2)S(C)(=O)=O)CC1 24.2 µM [decreasing]
COc1ccccc1Cn1c(=S)[nH]c2cc(C(=O)NCCN3CCOCC3)ccc2c1=O 16.7 µM [decreasing]
O=C(NC1CCS(=O)(=O)C1)c1ccc(-c2ccc(Br)cc2)o1 (configuration not stated) 18.5 µM [decreasing]
O=C(CC1NC2CCCCC2NC1=O)Nc1cccc(C(F)(F)F)c1 (configuration not stated) 18.8 µM [decreasing]
Cc1c(C(=O)NCCN2CCOCC2)oc2ccc(S(=O)(=O)N3CCCCCC3)cc12 22.1 µM [decreasing]
Cc1ccc(C)c(CSc2nnc(CCN)o2)c1 21.6 µM [decreasing]
COc1ccc2cc(C(=O)NCc3ccco3)c(=O)oc2c1 16.1 µM [increasing]
CC(=O)OCCN(Cc1ccccc1)Cc1ccc2c(c1)OCO2 28.6 µM [decreasing]
CC(C)OC(=O)c1nnn(-c2nonc2N)c1CN1CCc2ccccc2C1 27.9 µM [decreasing]
Cc1ccc(-n2cc(-c3ccccc3)[nH]c2=O)cc1F 33.7 µM [decreasing]
CCCCOc1ccc(C(C)(O)CCN2CCOCC2)cc1 (configuration not stated) 22.7 µM [decreasing]
OCc1cc(CO)c(O)c(CCc2ccccc2)n1 21.8 µM [decreasing]
O=c1c2ccccc2nc(-c2ccoc2)n1CCc1ccccc1 32.5 µM [decreasing]
CC1Cn2c(nnc2-c2cc3ccccc3cc2O)S1 (configuration not stated) 17 µM [decreasing]
CC(C)(C)C1=C(C#N)C(c2ccc3c(c2)OCO3)C(C#N)=C(N)O1 (configuration not stated) 30.5 µM [decreasing]
COc1ccc(NC(=O)c2cc(-c3cc(C)ccc3O)n[nH]2)cc1Cl 18.3 µM [increasing]
COc1ccc(CCCc2nnc(SCC(=O)Nc3ncc(C)s3)o2)cc1 17.1 µM [increasing]
CCOc1ccc2[nH]c(=O)c(CN(Cc3ccco3)C(CC)c3nnnn3Cc3ccccc3)cc2c1 (configuration not stated) 19.2 µM [decreasing]
CCOc1ccc2nc(NC(=O)C3CCN(c4cnccn4)CC3)sc2c1 23.8 µM [increasing]
CCn1cc(C(=O)NC2CCc3ccccc32)c(=O)c2ccc(C)nc21 (configuration not stated) 31.7 µM [increasing]
Cc1nnc2sc(-c3ccc(NC(=O)CSc4ccc(Cl)cc4)cc3)nn12 16.7 µM [decreasing]
COc1ccc(NC(=O)Cn2nnc(-c3ccccc3NC(=O)C3CC3)n2)cc1 16.9 µM [decreasing]
CCN=c1scc(-c2ccc3c(c2)NC(=O)CO3)n1N=C1CCCC1 20.2 µM [decreasing]
Nc1c(C(=O)NC2CCCC2)c2nc3ccccc3nc2n1/N=C/c1cccnc1 22.5 µM [decreasing]
Cc1ccc2cc(C#N)c(N3CCCC3)nc2c1C 17.3 µM [decreasing]
O=C(CCCCCN1C(=O)c2ccccc2C1=O)NCCc1nc2ccccc2[nH]1 17.3 µM [decreasing]
CC(C)[C@H](N)c1nnc(SCc2ccc(Cl)cc2)o1 18.8 µM [decreasing]
COc1ccc(-c2noc(N3CCC(C(=O)N4CCN(c5ccccn5)CC4)CC3)n2)cc1 23.8 µM [decreasing]
CCCCN(CC)S(=O)(=O)c1ccc(C(=O)Nc2nnc(COC)o2)cc1 19.3 µM [decreasing]
Cc1ccc(C)c(N(CC(=O)NCCSCc2ccco2)S(C)(=O)=O)c1 22.7 µM [decreasing]
Cc1noc(C)c1S(=O)(=O)Nc1ccc(C(=O)NCc2ccccc2)cc1 18.7 µM [decreasing]
CCCCn1c(=N)n(CC(O)COc2ccccc2)c2ccccc21 (configuration not stated) 21.8 µM [decreasing]
Cc1nc(N2CCN(C)CC2)c2c(C)c(C(=O)Nc3ccc(F)cc3)sc2n1 27.3 µM [decreasing]
Cn1c(=O)n(CCc2ccccc2)c(=O)c2c1nc1n2CCN1Cc1ccco1 16 µM [increasing]
CCCCC(c1nnnn1CC1CCCO1)N1CCN(c2cccc(C)c2C)CC1 (configuration not stated) 32.4 µM [decreasing]
COc1ccc(NC(=O)c2ccc(C(=O)c3ccccc3)o2)cc1 17.6 µM [decreasing]
CCOc1ccccc1NC(=O)N1CCC(NC(=O)c2cccc(C)c2)CC1 28.2 µM [decreasing]
CCNc1nc2c(c(=O)n(Cc3ccccc3)c(=O)n2C)n1Cc1ccccc1 24 µM [decreasing]
CCOC(=O)N1CCC(NS(=O)(=O)c2cc(Br)cnc2N)CC1 25.6 µM [decreasing]
Cc1ccc(F)cc1NC(=O)Cc1nn(C)c(=O)c2ccccc12 22 µM [decreasing]
O=C(NCc1ccco1)c1ccccc1NC(=O)C1CC(=O)N(c2ccc(Cl)cc2)C1 (configuration not stated) 21 µM [decreasing]

Potency, active:
CCN1C(=O)/C(=C\N2CCN(c3cccc(Cl)c3)CC2)SC1=S 7.83 µM
O=C(Oc1ccc(OC(=O)N2CCOCC2)cc1)c1ccccc1 8.03 µM

Potency, inactive:
Nc1cccc(NC(=O)c2cccs2)c1
COc1ccc(OC)c(S(=O)(=O)N(C)CC(=O)Nc2ccc3c(c2)OCO3)c1 > 76.9 µM
COc1ccc(NC2CS(=O)(=O)CC2NCc2ccco2)cc1 (configuration not stated) > 76.9 µM
COc1ccc(C2C3=C(CC(C)(C)CC3=O)Oc3ncn(CC(C)C)c(=N)c32)cc1 (configuration not stated) > 76.9 µM
COc1ccc(OC)c(C(c2nnnn2CCC(C)C)N2CCN(C(=O)c3ccco3)CC2)c1 (configuration not stated) > 76.9 µM
Cc1nc2cc(C(F)(F)F)ccc2n1C1CCN(CC(=O)NC(C)(C)C)CC1 > 76.9 µM
CNC(=O)c1cc2c(=O)n3cccc(C)c3nc2n(C(C)C)c1=N > 76.9 µM
Cc1cccc(NC(=O)C2CCCN2S(=O)(=O)c2ccc(F)cc2)c1C (configuration not stated) > 76.9 µM
COc1cccc(-n2nnc3c(=O)n(Cc4ccccc4Cl)cnc32)c1 > 76.9 µM
COc1ccc(Cn2c(CCC(=O)NCc3ccco3)nc3cccnc32)cc1 > 76.9 µM
CC(C)=CC(=O)Nc1ccc(Br)cc1 > 76.9 µM
CCOC(=O)c1cnn(-c2cc(C)nc3c(-c4ccccc4)c(C)nn23)c1N > 76.9 µM
C=CCn1c(SCC(=O)c2ccc(OC)cc2)nnc1-c1cc2cccc(OC)c2o1 > 76.9 µM
CCOc1ccc(NC(=O)Nc2cc(C)on2)cc1 > 76.9 µM
O=C(Cn1cnc2sc(-c3ccccc3)cc2c1=O)N1CCOCC1 > 76.9 µM
O=C(Nc1cccc(-c2cn3ccsc3n2)c1)c1ccccc1 > 76.9 µM
Nc1nc(-c2nc3ccccc3[nH]2)cs1 > 76.9 µM
O=C(c1cccn2c(=O)c3cc(Cl)ccc3nc12)N1CCN(Cc2ccc3c(c2)OCO3)CC1 > 76.9 µM
CC(=O)Nc1cccc(C(=O)Nc2ccccc2C(=O)O)c1 > 76.9 µM
COc1ccc(-c2noc(-c3ccccc3C(=O)Nc3cccc(OC)c3)n2)cc1 > 76.9 µM
Cc1ccc(C2C=C(c3ccccc3OC(F)F)Nc3ncnn32)cc1 (configuration not stated) > 76.9 µM
CC1CCCCN1S(=O)(=O)c1ccc2c(c1)CCN2C(=O)C1CCC1 (configuration not stated) > 76.9 µM
O=C(CN1C(=O)COc2ccccc21)N1CCCc2ccccc21 > 76.9 µM
C=CCn1c(N2CCCCCC2)nc2c1c(=O)[nH]c(=O)n2C > 76.9 µM
Nc1nc(SCC(=O)NCC2CCCO2)n[nH]1 (configuration not stated) > 76.9 µM
